Source: the supplement of paper PMC3334620
Whole data set: some 33,000 sequences, median “E-score (-0.5 to 0.5)” near -0.053, cut for the highest 2% near 0.37. The list shows a part of the results.

molecular target: Hap1 (UniProt P0CE41); assay: PBM E-score (8-mer binding enrichment) (E-score (-0.5 to 0.5)); higher = stronger / more preferred TF binding; most listed sequences are background and not binding sites; conditions: protein concentration: 200 nM; construct: GST-DNA-binding domain
How it was run: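 Yeast transcription factors carrying a GST tag, as full-length proteins or DNA-binding domains, were produced by PURExpress in vitro transcription/translation. About 100-200 nM protein was applied to universal all-10-mer Agilent arrays, double-stranded by primer extension on fresh or once-stripped slides. Bound protein was detected with fluorescent anti-GST, and scans were normalised with masliner. The Universal PBM Analysis Suite gave each ungapped eight-base word, pooled with its reverse complement, an E-score, a modified Wilcoxon-Mann-Whitney statistic.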

Sequence of UniProt P0CE41 (P0CE41 whole entry, the tested form may be a part): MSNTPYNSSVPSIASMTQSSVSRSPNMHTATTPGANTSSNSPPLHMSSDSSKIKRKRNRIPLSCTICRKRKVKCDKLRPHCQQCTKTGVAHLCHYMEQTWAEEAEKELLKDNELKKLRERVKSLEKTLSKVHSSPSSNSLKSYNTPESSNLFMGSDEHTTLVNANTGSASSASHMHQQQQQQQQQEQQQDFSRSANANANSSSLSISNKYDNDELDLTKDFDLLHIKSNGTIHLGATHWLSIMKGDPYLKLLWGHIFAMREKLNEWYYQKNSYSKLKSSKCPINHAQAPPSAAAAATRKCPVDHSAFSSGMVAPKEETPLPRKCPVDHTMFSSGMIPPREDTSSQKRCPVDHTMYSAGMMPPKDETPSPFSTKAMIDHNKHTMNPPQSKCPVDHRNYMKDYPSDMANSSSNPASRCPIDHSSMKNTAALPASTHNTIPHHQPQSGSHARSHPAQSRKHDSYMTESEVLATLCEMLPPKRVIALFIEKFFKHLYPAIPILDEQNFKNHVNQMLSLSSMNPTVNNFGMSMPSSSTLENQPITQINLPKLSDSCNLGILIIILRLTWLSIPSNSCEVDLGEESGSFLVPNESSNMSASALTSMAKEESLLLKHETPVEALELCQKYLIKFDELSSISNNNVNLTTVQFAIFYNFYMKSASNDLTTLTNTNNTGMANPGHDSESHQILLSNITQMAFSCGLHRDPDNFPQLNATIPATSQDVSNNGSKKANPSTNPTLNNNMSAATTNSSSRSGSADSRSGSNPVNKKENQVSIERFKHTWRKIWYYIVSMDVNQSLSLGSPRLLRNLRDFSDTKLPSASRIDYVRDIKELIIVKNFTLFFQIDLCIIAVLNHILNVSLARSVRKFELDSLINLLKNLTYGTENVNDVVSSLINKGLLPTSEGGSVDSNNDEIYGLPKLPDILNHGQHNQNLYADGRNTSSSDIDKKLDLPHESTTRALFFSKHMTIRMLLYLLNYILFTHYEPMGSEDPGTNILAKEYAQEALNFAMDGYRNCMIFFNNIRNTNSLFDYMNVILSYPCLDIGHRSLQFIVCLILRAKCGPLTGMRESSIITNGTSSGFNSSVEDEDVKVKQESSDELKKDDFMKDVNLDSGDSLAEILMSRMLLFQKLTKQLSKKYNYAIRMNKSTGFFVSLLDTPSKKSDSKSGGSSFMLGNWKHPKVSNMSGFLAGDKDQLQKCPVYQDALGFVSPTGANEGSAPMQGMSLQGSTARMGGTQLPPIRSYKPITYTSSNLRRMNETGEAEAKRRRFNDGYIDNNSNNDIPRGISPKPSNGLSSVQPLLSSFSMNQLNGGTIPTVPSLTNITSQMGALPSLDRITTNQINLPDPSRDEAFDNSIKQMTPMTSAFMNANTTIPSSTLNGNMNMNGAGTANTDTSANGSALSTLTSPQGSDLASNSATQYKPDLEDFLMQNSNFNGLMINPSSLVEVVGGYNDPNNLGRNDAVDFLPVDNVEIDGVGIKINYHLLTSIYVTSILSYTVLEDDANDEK

Row | Sequence | PBM E-score
1 | CGAAATCA | 0.167
2 | CGAGAAGA | 0.0377
3 | ATCGCGAA | 0.216
4 | CTGGGCGA | -0.0308
5 | AAGGCGAT | -0.0941
6 | TCAGTGGA | -0.0926
7 | CCAGCCGG | 0.275
8 | ACAAACGA | -0.145
9 | AGTGATAG | -0.308
10 | TGCACGAA | -0.299
11 | TCAAAAAA | 0.0121
12 | ACTGTTAT | -0.041
13 | AAGTAACT | 0.0725
14 | ATCTGCAT | -0.0399
15 | CAGAAGTA | -0.272
16 | CTCGGCTC | 0.226
17 | CATGGGGC | -0.155
18 | GCAGCCAA | -0.178
19 | ATGAGTGA | -0.187
20 | TCAACCCA | -0.0841
21 | AGGTAAGC | -0.215
22 | ATGTGAAG | -0.192
23 | AATTGAAA | -0.293
24 | TGTAGTAA | 0.0446
25 | CATCATTC | -0.00448

Row | Sequence | PBM E-score
26 | GATAATCA | -0.00414
27 | CACTGAGG | -0.0951
28 | CCAGAATC | -0.12
29 | GCTCTAAC | 0.0397
30 | ATTCTGAC | -0.0753
31 | CCACCCCG | 0.2
32 | CCTCAAAC | 0.00338
33 | GAAGAGGA | -0.136
34 | ACTCTTCT | -0.193
35 | AGGTCCGA | 0.404
36 | CTAGCTCC | 0.196
37 | ATTCTAAG | -0.0213
38 | AATGTCTC | -0.0165
39 | AACAATGA | -0.0687
40 | CCCTCCCC | 0.12
41 | AGAGTAAT | 0.076
42 | TCATTGCA | -0.247
43 | TCTCAACA | -0.232
44 | GAACTCGC | -0.0187
45 | CCCGCGCC | 0.189
46 | AATTAGCG | 0.206
47 | AGAACGTA | -0.108
48 | ACTTCCAG | -0.131
49 | AGTAGCCG | 0.209
50 | CGCCCAAC | -0.0574

Row | Sequence | PBM E-score
51 | CAATGCGA | -0.13
52 | ACCGCTGG | -0.0402
53 | AGGGACAG | -0.274
54 | TTACCTAA | -0.109
55 | GAATATTA | 0.0958
56 | GGGCGTAC | 0.2
57 | ACCATTTA | -0.117
58 | CTGCGGTA | 0.191
59 | CCAATGCG | -0.169
60 | GTTGAAGA | -0.214
61 | CAGACGTA | -0.0717
62 | GACCAAGA | -0.0391
63 | TTCACAAA | -0.051
64 | CAGGGATA | -0.218
65 | GCTCATCC | 0.0138
66 | CCCAGCTA | -0.276
67 | AAACCGCC | 0.148
68 | CGCACGTA | -0.0134
69 | ACGCCCCC | 0.0965
70 | GAGATTGA | -0.113
71 | CATTCCCA | -0.105
72 | ATGCCGCA | 0.113
73 | ACCTGGAA | -0.187
74 | AGACGACA | -0.101
75 | ACCATAAG | -0.188

Row | Sequence | PBM E-score
76 | ATATCTGA | -0.126
77 | GAGGCAAC | 0.00569
78 | AAGGGATG | -0.238
79 | CGCTGCTA | 0.149
80 | TCCACCGA | 0.227
81 | ACGTCCAA | -0.0855
82 | GTTGGTAA | -0.214
83 | CGTGGAGA | 0.0328
84 | ACGATTCG | 0.133
85 | GGCTTAAC | 0.067
86 | ATGAGCGG | 0.0871
87 | CCCAGGTA | -0.25
88 | CCCCTCGA | -0.119
89 | CAATGGGC | -0.178
90 | GCTTATAC | -0.0126
91 | AGAGAGTA | -0.0569
92 | TCTGGAAA | -0.139
93 | AGTGCCTC | -0.167
94 | CGCGATAG | 0.2
95 | AAACGCAC | -0.0629
96 | GAGAACTC | -0.0497
97 | AACAGCCC | 0.0167
98 | ATCGTACG | 0.0112
99 | GATCTCAC | -0.0618
100 | ATCTATGC | -0.128

Row | Sequence | PBM E-score
101 | TCTCGTCA | -0.12
102 | CCGACTAA | 0.253
103 | AAGATCAA | -0.203
104 | GACACTAA | 0.0222
105 | AATAGCCA | -0.249
106 | GTTGCAAA | -0.0687
107 | AATTAATC | -0.0343
108 | CTGCATGC | -0.0792
109 | AGGGTCTC | -0.204
110 | CTCCGCGC | 0.294
111 | AAACGCGC | 0.0907
112 | CGTGTGCA | -0.102
113 | CACCCGTC | 0.146
114 | CAAGTGGG | -0.132
115 | CAACGGCC | 0.0466
116 | AAGTGTAA | -0.0967
117 | ACTCACTG | -0.259
118 | AACAACAA | -0.209
119 | AAAGTCAT | -0.148
120 | AGCCATTG | -0.333
121 | AGATCCAC | 0.0171
122 | AATGTGAC | -0.128
123 | GAGCGGAA | 0.248
124 | CACGAGGG | -0.0112
125 | AGGACTAA | -0.0745

Row | Sequence | PBM E-score
126 | ACAGGTAG | -0.256
127 | AGCAAGGA | -0.198
128 | ATCAGACG | -0.1
129 | ACTGCGGG | 0.0676
130 | TGGAGCAA | -0.195
131 | AGAATAGC | -0.0642
132 | ATCCTCGG | 0.279
133 | AGTCGTAC | -0.184
134 | CCCAATAA | -0.0706
135 | GCGTTGAC | -0.207
136 | ACGAGGGG | -0.16
137 | TACTGCTA | -0.0974
138 | ATCTGCTC | -0.132
139 | AAACACAT | -0.163
140 | AGGGCCCT | -0.142
141 | AAATGACT | -0.237
142 | GCAGGTTA | 0.0705
143 | AATGCTGA | -0.19
144 | GCCGCTGA | 0.111
145 | GACCCTCA | -0.151
146 | GTATAAGA | -0.0203
147 | CGAAGTCC | 0.34
148 | ATATACGC | -0.0579
149 | TGCCCGCA | 0.146
150 | AGCTTACG | -0.168

Row | Sequence | PBM E-score
151 | CCCACCTC | -0.0704
152 | GAGACAGC | -0.023
153 | CCAAGTCG | -0.0324
154 | GCAGATAA | 0.184
155 | AATTATGA | 0.0985
156 | CGAACTGA | 0.00885
157 | CGGAGACG | 0.236
158 | CGCCACTA | -0.0208
159 | TCCACAGA | -0.15
160 | GAACTCCA | -0.0677
161 | CGCCTAAG | -0.116
162 | ATCGTGCG | 0.0258
163 | AGTTGTAT | -0.0505
164 | ATTACGGG | 0.224
165 | GAGCGTTA | -0.121
166 | ATTGGCAC | -0.21
167 | CTACGGAC | 0.278
168 | GATACGGA | 0.329
169 | TAAGATCA | -0.179
170 | GCAAGCCA | -0.171
171 | GAATATGC | 0.0672
172 | AGACACCA | -0.0418
